Out of some 330,000 compounds screened, about 1,500 (0.45%) were called active. The shares of active, inactive and inconclusive entries below differ from those in the screen. Cut-off read from the data, not from the text of the source: active = inhibition above about 45% (passing the limit was not always enough); inconclusive = no clear call, values can overlap the other calls.
Molecular target: Ubiquitin-conjugating enzyme E2 N (Homo sapiens) (UniProt P61088)
Assay: UBC13 polyubiquitin chain formation inhibitors, primary screen, biochemical, TR-FRET, uHTS (AID 485273)
Conditions: at 20 µM, active compounds read high

Chain of UniProt P61088 (P61088 whole entry, looked up): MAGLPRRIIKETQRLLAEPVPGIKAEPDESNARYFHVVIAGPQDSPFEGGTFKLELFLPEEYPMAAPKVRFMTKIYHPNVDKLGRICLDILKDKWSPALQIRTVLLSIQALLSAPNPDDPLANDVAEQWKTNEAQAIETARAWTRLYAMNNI

inhibition, active:
COc1ccc(Cn2c(SCC(=O)NCc3ccco3)nc3ccsc3c2=O)cc1 66.2%
CCN1CCN(CCNC(=O)c2ccc(/C=C3/Sc4ccccc4N(Cc4cccc(C)c4)C3=O)cc2)CC1 50.8%
O=C1CC(c2ccc(F)cc2)C(n2cncn2)C(O)=C1C1NCCc2ccccc21 (configuration not stated) 53.5%
C[C@@H]1O[C@@H](Oc2c(-c3cc(O)c(O)c(O)c3)oc3cc(O)cc(O)c3c2=O)[C@H](O)[C@H](O)[C@H]1O 49.9%
O=C(CCNC(=O)Cn1ccc2ccccc2c1=O)NCCN1CCN(c2ccccc2F)CC1 91.4%
CCN(CC)CCNC(=O)c1cc2c(=O)n(C)c3ccccc3c2s1 55.2%
Cc1cccc2c1-c1sc(C(=O)NCCCN3CCC(C)CC3)cc1CO2 53.2%
CN1CCN(CCCNC(=O)c2cc3c(-c4ccc(Cl)cc4)nn(C)c3s2)CC1 46%
COCc1cc(=O)[nH]c(Nc2nc3ccccc3o2)n1 80.7%
CCCCCOc1ccc(Br)cc1/C(C)=N/NC1=NCCN1 57.5%
C#CCOCCOCCOCCNc1nc(N2CCN(C(=O)[C@H](CCCN=C(N)N)n3cc(C(N)[C@@H](C)CC)nn3)CC2)nc(N2CCN(C(=O)[C@H](CCCCN)n3cc([C@@H](N)CC(N)=O)nn3)CC2)n1 (some centres not stated) 50.4%
Cc1[nH]c(=S)c(C#N)c(-c2ccccc2)c1C(=O)Nc1ccccc1 50.8%

inhibition, inactive:
COc1ccccc1NC(=O)CSc1c2c(nc3ccccc13)CCC2 2.5%
CCOc1ccccc1N1CC(C(=O)Nc2cc(Cl)ccc2C)CC1=O (configuration not stated) 7.4%
COC(=O)c1c(NC(=O)COC(=O)[C@@H](NS(=O)(=O)c2cccc(Cl)c2)C(C)C)sc2c1CCC2 -10.9%
Cc1cc(-c2ccc(Cl)cc2)c2cnn(C(C)C)c2n1 7.3%
CC(C)c1ccc(NC(=O)CN2CCN(C(=O)C3CCCO3)CC2)cc1 (configuration not stated) -1.5%
COc1ccc(C(=O)c2ccccc2)c2c(O)ccc(C(=O)c3ccccc3)c12 -4.2%
CCn1c(N2CCN(C(=O)C34CC5CC(CC(C5)C3)C4)CC2)nc2ccccc21 10.6%
CC1=C(CC(=O)c2ccccc2)C(=O)c2ccccc2C1=O -34.9%
Cc1ccccc1N=C1SCCN1C(=O)CN1C(=O)NC2(CCCC2)C1=O 0.3%
CNC(=S)N1CCN(c2ccc(Cl)c(Cl)c2)CC1 0.7%
Cc1ccc2[nH]c3c(N4CCOCC4)ncnc3c2c1 6.5%
Cc1cc(C(=O)COC(=O)c2cccn2C)c(C)n1Cc1ccco1 3.5%
COc1ccc(-c2cc(C(=O)NCCN3CCOCC3)c3cc(C(C)C)ccc3n2)cc1 22.5%
CCCCSc1cnn(-c2ccccc2)c(=O)c1SCCCC -6.3%
CCCOc1ccc(C2C(C(=O)c3ccc(C)o3)=C(O)C(=O)N2Cc2ccco2)cc1 (configuration not stated) -21.6%
CC1C(=O)N2CCCc3cc(S(=O)(=O)N4CCN(c5cccc(Cl)c5)CC4)cc1c32 (configuration not stated) -9.4%
Cc1cc(C)c(S(=O)(=O)NC(CC(=O)O)c2cccc([N+](=O)[O-])c2)c(C)c1 (configuration not stated) -4.1%
COc1ccc(Nc2nc(Cl)nc(NCCO)n2)cc1 -8.1%
COc1ccc(NC(=O)c2ccc3c(c2)C(=O)N(CC2CCCO2)C3=O)c(OC)c1 (configuration not stated) -1.8%
O=C(NC(NC(=S)Nc1ccccc1O)C(Cl)(Cl)Cl)c1ccco1 (configuration not stated) -15.5%
CC(Nc1ccccc1)c1ccncc1 (configuration not stated) 2.1%
O=C(NC(c1ccccc1)c1ccccc1)c1ccc(Br)o1 5.5%
CCCCn1c(N)c(N(CCOC)C(=O)c2cc(CC)c(C)s2)c(=O)[nH]c1=O -3.6%
Cn1nc(-c2ccccc2)cc1NS(=O)(=O)c1ccc(C#N)cc1 12.4%
CCN(CC(=O)Nc1ccc(NC(C)=O)cc1)C(=O)c1cccc(-n2cccc2)c1 -1%
CCNc1c([N+](=O)[O-])ncn1C -0.8%
COc1ccc(Cl)cc1NC(=O)NCC1CCN(C(=O)OC(C)(C)C)CC1 -4.3%
Cc1cccc(C)c1NC(=O)Cn1nnc(-c2ccc(N3CCOCC3)cc2)n1 3.5%
CC1=CC(=O)C=CC1(C)C(Cl)Cl (configuration not stated) -8%
NC(=O)c1cc[n+](CC(=O)c2ccc(NC(=O)c3ccccc3)cc2)cc1 2.8%
CCOC(=O)c1ccc(N2Cc3ccccc3C2=NC(=O)c2cccc([N+](=O)[O-])c2)cc1 -1.7%

inhibition, inconclusive:
CC1CCN(CCc2nc3cc(NS(=O)(=O)c4ccc(F)cc4)ccc3n2C)CC1 67.7%
CN(C(=O)c1sc2nc(N3CCOCC3)c3c(c2c1N)CCCC3)c1ccccc1 92.5%
CCOC(=O)C1=C(COC(=O)[C@@H](NC(=O)c2cccc(C)c2)C(C)C)NC(=O)NC1C (some centres not stated) 68%
CN(Cc1ccc(OC(F)F)cc1)Cc1nc2c(Br)cc(Br)cc2c(=O)[nH]1 84.6%
Cc1ccc(N2C(=O)CC(Sc3nc(-c4ccccc4)c4cc(Cl)ccc4n3)C2=O)c(C)c1 (configuration not stated) 77%
COc1cc(NC(=O)CCc2nnc3ccc(N4CCN(c5cccc(OC)c5)CC4)nn23)cc(OC)c1 66.7%
CC(C)n1c2ccccc2c2nc3ccccc3nc21 66%
COC(=O)C(C)Sc1nnc(Cc2cc(=O)[nH]c(=O)[nH]2)n1-c1cc(C)ccc1C (configuration not stated) 63.1%
O=C(O)c1ccccc1C(=O)Nc1nccs1 65.7%
FC(F)(F)c1nnc2c(Sc3ccc(Cl)cc3)nc3ccccc3n12 58.1%
CCc1nnc(NC(=O)CSc2nc(C3CCCCC3)nc3ccccc23)s1 52.4%
N#Cc1c(-c2ccccc2)cc(-c2ccccc2)nc1SCc1nnc(-c2ccccc2)o1 57.9%
CC1CCCCN1C(=O)c1cc(S(=O)(=O)N2CCCCC2)c[nH]1 (configuration not stated) 58.1%
O=[N+]([O-])c1ccc(CSc2nc3ccccc3o2)cc1 51.8%
CCCCOC(=O)c1sc2nc(N3CCOCC3)c3c(c2c1N)CC(C)(C)OC3 52.8%
CC(C(=O)Nc1ccc2c(c1)OCCO2)N1CCN(C(=O)c2ccco2)CC1 (configuration not stated) 88%
N#Cc1c2n(c3c(=S)nc[nH]c13)CCCCC2 65.5%
COc1ccc(CC(=O)NC2CCSc3ccccc32)cc1OC (configuration not stated) 74.7%
COc1ccccc1-c1cc(C(F)(F)F)nc(N2CCCCC2)n1 60.5%
O=C(CCCn1c(=S)[nH]c2ccsc2c1=O)Nc1ccc2c(c1)OCCO2 81.5%
CSc1ccccc1C(=O)Nc1ccc(S(=O)(=O)NC2=NCCCCC2)cc1 61%
COc1cc2oc(=O)c3c(c2cc1OCC(=O)c1c(C)n(C)c2ccccc12)CCCC3 58.4%
CCOc1ccc2c(c1)c(N=NC(N)=S)c(O)n2C 57.3%
Cc1ccc(C(=O)n2c3ccccc3c3ccccc32)cc1 51.4%
CCCCc1cc(=O)oc2cc(O)cc(O)c12 79.9%
CCOc1ccc(-c2nnc3ccc(SCC(=O)N4CCCCC4)nn23)cc1 55.3%
CCOc1cccc2sc(=NC(=O)c3ccc(S(=O)(=O)N4CCOCC4)cc3)n(C)c12 67.1%
Cc1sc2ncnc(Sc3ccccc3C(=O)O)c2c1C 69.7%
COCCCNC(=O)Cn1nnc(-c2ccc(NC(=O)c3ccccc3OC)cc2)n1 89%
CC(=O)Nc1ccc(S(=O)(=O)N2CCN(CCN3CCOCC3)CC2)cc1Cl 84.1%
O=c1[nH]c(=S)[nH]c2sccc12 87%
COc1ccc(N2CCN(C(=O)c3ccc4c(c3)[nH]c(=S)n3c5ccccc5nc43)CC2)cc1 77.5%
CCc1ccc(-c2cc(C(F)(F)F)n3nc(C(=O)Nc4c(C)nn(Cc5ccccc5C)c4C)cc3n2)s1 60%
O=C(O)CCc1ccc(-c2ccc(Cl)cc2)n1CCC(=O)O 75.5%
Cc1ccc2nsnc2c1S(=O)(=O)N(Cc1ccco1)Cc1cc2cccc(C)c2[nH]c1=O 47.8%
NC(=O)c1sc2nc3c(c(-c4ccccc4)c2c1N)CCC3 66.3%
COc1ccc2[nH]c3c(C)c4ccncc4c(C)c3c2c1 86.5%
O=C(CCCCCn1c(=S)[nH]c2ccc(Br)cc2c1=O)NCC1CCCO1 (configuration not stated) 73.2%
COc1ccc(-c2ccc(C#N)c(SCC(=O)OCc3ccccc3)n2)cc1OC 58%
CC(=O)c1sc(C(C)(C)C)cc1NC(=O)c1ccccc1C(=O)O 50.7%
COc1cc(OC)cc(-c2c(-c3cccs3)c3cc(-c4ccc(N(C)C)nc4)ccc3n2C)c1 58.2%
CCc1nnc(NC(=O)CSc2nc3c(cc2C#N)CCC3)s1 51.1%
O=C(NCCCn1ccnc1)C(=O)NCC1OCCCN1S(=O)(=O)c1ccccc1 (configuration not stated) 93.1%
N#Cc1c(SCC(=O)O)nc(N2CCCCC2)c2c1CCCC2 82.1%
